# The supplement of paper PMC10126150
# Values marked as one replicate rest on one cluster of the flow cell; about a third of the high ones do not repeat.
# Tested on: ATP
# Experiment: switch fluorescence ratio, 500 uM ATP over buffer (Cy3 cluster intensity, sum of 5 cycles each) (fold (ratio)); higher = stronger signal-on switching upon ATP binding; sequences stand for … in TCGTCGGCAGCGTCAGATGTGTATAAGAGACAGTTTTTTTTTTTTTTTTTTTTTTTTT…TC
# Settings: aptamer strand: ATP DNA aptamer (quencher-CACCTGGGGGAGTATTGCGGAGGAAGG + anchor), 100 nM annealed; ATP concentration: 500 uM; one replicate
# In short: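 Cy3-labelled switching-strand clusters on a modified Illumina MiSeq flow-cell were annealed to 100 nM quencher-labelled ATP aptamer, imaged in selection buffer, then imaged after 15 min with 500 uM ATP at 22 °C. Five buffer/ATP cycles ran, with NaOH stripping and re-annealing between them. The fluorescence ratio is summed target-cycle over summed buffer-cycle Cy3 intensity per cluster, averaged per switch-domain sequence. Clusters outside 100-1000 RFU were excluded.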
# 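Note: ATP exposure 15 min at 22 °C before imaging.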
row,Sequence,switch fluorescence ratio
1,GGTCGAAGAG,1.01
2,GGTCGACGGG,1
3,GGTCGCAAAA,0.989
4,GGTCGCTATG,1.02
5,GGTCGCTGAG,1.01
6,GGTCGTCATT,1.02
7,GGTCGTGCAA,1.05
8,GGTCTAGGGA,0.993
9,GGTCTCACG,1.02
10,GGTCTCTGTC,0.972
11,GGTCTGCAGT,1.04
12,GGTCTGGG,0.977
13,GGTCTTGGGG,1.02
14,GGTGAAGTTA,0.961
15,GGTGACAGTA,1.01
16,GGTGAGCGTG,0.982
17,GGTGATGC,1.08
18,GGTGCAGCGA,1.04
19,GGTGCAGGAT,1
20,GGTGCGCGTG,0.998
21,GGTGCGTTTG,0.954
22,GGTGCTGTAT,1.03
23,GGTGCTTTTC,0.969
24,GGTGGACTGG,0.966
25,GGTGGAGCGT,0.978
26,GGTGGGGACC,1.03

row,Sequence,switch fluorescence ratio
1,GGTGGTATCG,1.03
2,GGTGTACCGA,1
3,GGTGTAGATC,1.06
4,GGTGTCTCGC,0.987
5,GGTGTGAATG,0.965
6,GGTGTGACGA,1.04
7,GGTGTGATAG,1
8,GGTTACCCGT,0.947
9,GGTTACCGCA,1.09
10,GGTTACCGGG,1.01
11,GGTTACTCTG,1.07
12,GGTTAGATA,0.986
13,GGTTAGGAAT,1.01
14,GGTTAGTCTC,1.01
15,GGTTATCAAG,1.01
16,GGTTATCAGT,0.974
17,GGTTATGCTC,1.04
18,GGTTATTGCG,0.993
19,GGTTCAGAAA,0.991
20,GGTTCGACTT,0.924
21,GGTTCGGTGG,1.08
22,GGTTCTCCAG,1
23,GGTTCTGATT,0.949
24,GGTTCTTTGA,0.98
25,GGTTGACGAA,1.06
26,GGTTGATCGC,0.966

row,Sequence,switch fluorescence ratio
1,GGTTGCGG,1.02
2,GGTTGCTACG,0.97
3,GGTTGCTTGG,0.966
4,GGTTGGAACG,1.01
5,GGTTGGATTG,1.01
6,GGTTGGTATA,1.05
7,GGTTGTCCTT,0.986
8,GGTTGTGATT,0.999
9,GGTTGTTCTA,0.979
10,GGTTTAATCT,1.02
11,GGTTTACCAT,1.02
12,GGTTTAGGC,1.05
13,GGTTTAGGCG,0.882
14,GGTTTATACT,1.1
15,GGTTTCATCG,0.978
16,GGTTTCATGT,0.972
17,GGTTTCCTTA,0.988
18,GGTTTCTTAT,1.04
19,GGTTTGATTA,0.974
20,GGTTTGTATT,0.967
21,GGTTTGTTAC,0.959
22,GGTTTGTTTT,0.989
23,GGTTTTAGC,0.995
24,GGTTTTCCGA,1.05
25,GGTTTTGCGA,1.01
26,GTAAAAGCTT,1.03

row,Sequence,switch fluorescence ratio
1,GTAAAATT,1.01
2,GTAAACCTCT,1.09
3,GTAAAGCCCG,0.998
4,GTAAATTGGG,0.959
5,GTAAATTTCT,1.06
6,GTAACAATAT,1.17
7,GTAACTCAGC,0.998
8,GTAACTTGCT,1.01
9,GTAAGAAAAA,0.992
10,GTAAGAGTAG,1
11,GTAAGCTGC,0.98
12,GTAAGTAGGG,1.03
13,GTAAGTTAGT,0.972
14,GTAATAAAGC,1.03
15,GTAATAAGAA,0.984
16,GTAATACCAC,1.13
17,GTAATACTTA,1.12
18,GTAATAGTAG,0.995
19,GTAATCTAAT,0.965
20,GTAATCTCCT,1.21
21,GTAATGACTA,1.05
22,GTAATGAGAT,0.978
23,GTAATGGTAG,1.02
24,GTAATTCGGT,1.03
25,GTACAAGGAT,1.01
26,GTACATTTGT,1.01

row,Sequence,switch fluorescence ratio
1,GTACGAGAAA,1.01
2,GTACGATTAA,0.978
3,GTACGGGTAG,1.05
4,GTACTCGCGA,1.18
5,GTACTGGGCA,0.968
6,GTACTTTGCA,1.03
7,GTAGAAATCA,1.04
8,GTAGAAC,0.98
9,GTAGAAGGTA,0.998
10,GTAGAAGTTC,1.02
11,GTAGAATGAC,1.04
12,GTAGCCTAAG,1.01
13,GTAGCGGGTG,1.09
14,GTAGCGTAAG,0.996
15,GTAGCTACTT,0.987
16,GTAGCTCATG,1.05
17,GTAGCTGGAA,0.994
18,GTAGCTGGGT,1.01
19,GTAGGAGACA,1.01
20,GTAGGATATC,1.01
21,GTAGGGGTAT,0.969
22,GTAGGGTGGG,0.988
23,GTAGGTACT,1.04
24,GTAGGTGCCT,1.04
25,GTAGGTGCTT,1.08
26,GTAGTAAACG,1.03

row,Sequence,switch fluorescence ratio
1,GTAGTACGGA,1.04
2,GTAGTCGATA,1.02
3,GTAGTCGCAG,0.991
4,GTAGTCGTGC,0.992
5,GTAGTGCAT,1.02
6,GTAGTGCTGT,0.997
7,GTAGTGTTCT,0.984
8,GTATAAGGCA,0.995
9,GTATCAGCTC,0.977
10,GTATCGTTTG,0.989
11,GTATGCAGTG,0.973
12,GTATGTAATA,0.961
13,GTATGTACGC,1.06
14,GTATTAGGAG,0.958
15,GTATTCGCT,0.986
16,GTATTGGGGT,0.995
17,GTCAAAACG,0.976
18,GTCAACTGTA,0.979
19,GTCAATGCCC,1.11
20,GTCACAGGTT,1.11
21,GTCACATG,1.02
22,GTCACCGTCC,1.43
23,GTCACGTCTA,0.99
24,GTCACTGGTA,0.998
25,GTCAGTCTTT,1.14
26,GTCAGTGATT,0.985

row,Sequence,switch fluorescence ratio
1,GTCATAAATA,0.999
2,GTCATACGTG,1.04
3,GTCATATCTG,0.969
4,GTCATATTT,1.02
5,GTCATCAGCT,1.02
6,GTCATCCGTT,0.996
7,GTCATCGCAT,1.18
8,GTCATGGCCT,0.992
9,GTCATGGGCC,1.05
10,GTCATTATGT,0.975
11,GTCCAAAGA,1.02
12,GTCCAGACTT,1.02
13,GTCCAGGGTA,1.1
14,GTCCATAGTG,0.997
15,GTCCATTAAG,1.02
16,GTCCCATCGG,0.977
17,GTCCCCCAT,1.03
18,GTCCCGTGCC,1.07
19,GTCCCGTTTT,1.02
20,GTCCCTGGTC,1.05
21,GTCCGACATT,1.03
22,GTCCGGAGTC,1.3
23,GTCCTAACTC,1.02
24,GTCCTACAAT,0.985
25,GTCCTCAACG,1.03
26,GTCCTCGTCA,0.985

row,Sequence,switch fluorescence ratio
1,GTCCTTGGGT,0.983
2,GTCGAACATC,0.963
3,GTCGAAGAGA,0.973
4,GTCGAATAGC,0.988
5,GTCGACACGT,1
6,GTCGACAGT,1.01
7,GTCGACTTGT,0.959
8,GTCGAGCAGC,1.09
9,GTCGAGGTAT,1.09
10,GTCGAGTCGA,0.994
11,GTCGATACTT,1.05
12,GTCGCAACTA,1.12
13,GTCGCGGATT,0.997
14,GTCGCTGAGA,1
15,GTCGCTGTTC,0.95
16,GTCGCTTCGG,1
17,GTCGCTTGAC,1
18,GTCGGCAGGC,1.06
19,GTCGGCCGGG,1.02
